# Data as given in ChEMBL document CHEMBL1201862, “PubChem BioAssay data set” (2004).
#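 Assay format: 96-well plates, 48-hour exposure. GI50: concentration for 50% inhibition of growth.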 Activity calls are given as the source filed them. Rule as the data show it: active = GI50 up to about 1.1 µM and inactive = higher.
# System: NCI-H322M
# Test: NCI-60 cell line screen, 48 h
row,Compound,GI50
1,O=[N+]([O-])c1ccc(NC(=S)Nc2ccccn2)cc1,inactive: 33.8 µM
2,COC1(OC)N=C(N)C2(C#N)C(C)CC(=O)N(N(C)C)C12C#N (configuration not stated),inactive: > 100 µM
3,Cc1nc2ccc(N)cc2nc1O,inactive: > 100 µM
4,CC12CC(c3ccccc3O1)C(C(=O)Nc1cccc(F)c1)C(=O)N2 (configuration not stated),inactive: > 100 µM
5,O=C1NC2C=CN(Cc3ccccc3)C=C2C(=O)N2CCCC12 (configuration not stated),inactive: > 100 µM
6,O=C1NC2=C(CCCC/C2=N\O)C12CCCCC2,inactive: > 100 µM
7,O=c1[nH]c(=O)n(C2OC3COC2C3O)cc1F (configuration not stated),inactive: > 100 µM
8,Cc1ccc(S(=O)(=O)N/N=C/c2oc(-c3ccncc3)c(-c3ccncc3)c2[N+](=O)[O-])cc1,inactive: > 100 µM
9,CC(=O)NC(CCCCNC(=O)N(CCCl)N=O)C(=O)NCc1ccccc1 (configuration not stated),inactive: > 100 µM
10,CCOC(=O)/C=C(/C)Nc1nc2c(c(C(=O)OC)c1C#N)CCCC2,inactive: > 100 µM
11,CC(=O)/N=C1/N(/C=C2\C(=O)Oc3ccccc3C2=O)C(=O)/C(=C/c2ccc(NC(C)=O)cc2)N1C,inactive: > 100 µM
12,COc1ccccc1/C=C1\Sc2scc(-c3cccc([N+](=O)[O-])c3)[n+]2C1=O,inactive: 16.3 µM
13,CN1c2ccccc2NC(CC(=O)O)C2CC=CN21 (configuration not stated),inactive: > 100 µM
14,Cc1cnc(/N=c2\sc(C)cn2-c2ncc(C)s2)s1,inactive: > 100 µM
15,CCOC(=O)/C=C(\N=P(c1ccccc1)(c1ccccc1)c1ccccc1)C(F)(F)C(F)(F)C(F)(F)C(F)(F)C(F)(F)F,inactive: > 100 µM
16,CCOC(=O)CSc1c(C(=O)OCC)c(=O)n(-c2ccccc2)c(=S)n1-c1ccccc1,inactive: > 100 µM
17,CCOC(=O)c1nc2cc(F)cc(F)c2[nH]c1=O,inactive: > 100 µM
18,COc1cc(C(C)O)c(S(=O)(=O)CC(C)O)nn1 (configuration not stated),inactive: > 100 µM
19,COc1ccc2c(c1)c1c(n2CCN(C)C)-c2ccccc2CC1,inactive: 15.3 µM
20,CCCNc1[nH]c(C(=O)c2ccccc2)c(N)c1C(=S)Nc1ccccc1,inactive: > 100 µM
21,c1ccc2c(c1)SCCCSCCSCCCS2,inactive: > 100 µM
22,Clc1c(C(Cl)(Cl)Cl)nsc1N1CCCCC1,inactive: 32.8 µM
23,CC1Cc2cc(O)c(O)cc2-c2cc(O)c(O)cc2CC1C (configuration not stated),inactive: 16.3 µM
24,COC(=O)c1c(C(=O)OC)c(C(c2ccccc2)c2ccccc2)n(-c2ccccc2)c1Cl,inactive: > 10 µM

row,Compound,GI50
1,CC12CCC(C(Nc3cc(C(F)(F)F)cc(C(F)(F)F)c3)C1=O)C2(C)C (configuration not stated),inactive: > 100 µM
2,O=C1CCC[C@]2(CCC[C@@H](O)C2)N1,inactive: > 100 µM
3,Cc1ccc([N+](=O)[O-])cc1NC(=O)C(=O)Cc1occc(=O)c1O,inactive: > 100 µM
4,CCc1cccc(C(C)C)c1NC(=O)C(=O)C1C(=O)NC(=O)NC1=O,inactive: > 100 µM
5,CN(C)C(=S)/N=c1\ss/c(=N\C(=S)N(C)C)n1-c1ccc(Cl)c(Cl)c1,inactive: > 100 µM
6,COc1ccccc1NC1Oc2cc3c(cc2C(c2cc(OC)c(OC)c(OC)c2)C1C)OCO3 (configuration not stated),inactive: 5.87 µM
7,CC1(C)CCCCCC(C)(CCCO)C1=O (configuration not stated),inactive: > 100 µM
8,Cc1cc(NC(=O)C(=O)Cc2cnc3ccccc3n2)c(S(=O)(=O)O)cc1Cl,inactive: > 100 µM
9,COCC1OC(OC2C3=C(C(C)C)CCC3(C)/C=C3\C(CCC3(O)COC)C(C)C2O)C(O)C2OC3OC12OC3(C)C1CO1 (configuration not stated),inactive: 44.2 µM
10,Cc1ccc(-c2cc(-c3ccc(Cl)cc3)nc(/N=C3\C(=O)N(CN4CCCCC4)c4ccc(Cl)cc43)n2)cc1,inactive: 64.4 µM
11,FC(F)(Sc1ncc[nH]1)c1nc2ccccc2o1,inactive: > 100 µM
12,CCOC(=O)[C@@H]1ON2O[C@@H](OC3CCCC3(c3ccccc3)c3ccccc3)C[C@H]3OC(=O)[C@@H]1C32 (some centres not stated),inactive: 45.5 µM
13,CC#C[C@@]1(O)CCCC[C@@H]1O,inactive: > 100 µM
14,CCCCP1(=O)C=CC(Cl)=C(C)C1 (configuration not stated),inactive: > 100 µM
15,O=C1C2=C(c3ccccc31)C(c1ccccc1Cl)NC(S)=N2 (configuration not stated),inactive: > 100 µM
16,Clc1ccc(C(SCc2ccccc2)SCc2ccccc2)cc1,inactive: > 10 µM
17,CCOC(=O)C(NC(=O)c1ccccc1)(Nc1ccc(S(=O)(=O)Nc2ccc(OC)nn2)cc1)C(F)(F)F (configuration not stated),inactive: > 100 µM
18,COc1ccc(C2(O)C(S(=O)(=O)c3ccc(C)cc3)=Cc3ccc(OC)cc32)cc1 (configuration not stated),inactive: 41.3 µM
19,CCCC1CCC(=C2C(=O)CCC2=O)O1 (configuration not stated),inactive: > 100 µM
20,O=C1Cc2c(-c3ccccc3)cc(-c3ccccc3)nc2-c2ccccc2N1,inactive: 5.56 µM
21,COc1ccc(/C=C2/C(=O)N(C(=O)c3ccccc3O)N=C2C)cc1OC,inactive: 1.79 µM
22,CN(C)CCn1c(=O)c2ccc3c4c(nn3CCN(C)C)c3cc([N+](=O)[O-])ccc3n(c1=O)c24,active: < 0.0194 µM
23,Cc1nc2c(o1)/C(=N\c1ccccc1)c1ccccc1/C2=N/c1ccccc1,inactive: > 100 µM
